The target of assay [1] is T1, C-terminally GFP-tagged MTBP (human) (UniProt Q96DY7).
T1 sequence: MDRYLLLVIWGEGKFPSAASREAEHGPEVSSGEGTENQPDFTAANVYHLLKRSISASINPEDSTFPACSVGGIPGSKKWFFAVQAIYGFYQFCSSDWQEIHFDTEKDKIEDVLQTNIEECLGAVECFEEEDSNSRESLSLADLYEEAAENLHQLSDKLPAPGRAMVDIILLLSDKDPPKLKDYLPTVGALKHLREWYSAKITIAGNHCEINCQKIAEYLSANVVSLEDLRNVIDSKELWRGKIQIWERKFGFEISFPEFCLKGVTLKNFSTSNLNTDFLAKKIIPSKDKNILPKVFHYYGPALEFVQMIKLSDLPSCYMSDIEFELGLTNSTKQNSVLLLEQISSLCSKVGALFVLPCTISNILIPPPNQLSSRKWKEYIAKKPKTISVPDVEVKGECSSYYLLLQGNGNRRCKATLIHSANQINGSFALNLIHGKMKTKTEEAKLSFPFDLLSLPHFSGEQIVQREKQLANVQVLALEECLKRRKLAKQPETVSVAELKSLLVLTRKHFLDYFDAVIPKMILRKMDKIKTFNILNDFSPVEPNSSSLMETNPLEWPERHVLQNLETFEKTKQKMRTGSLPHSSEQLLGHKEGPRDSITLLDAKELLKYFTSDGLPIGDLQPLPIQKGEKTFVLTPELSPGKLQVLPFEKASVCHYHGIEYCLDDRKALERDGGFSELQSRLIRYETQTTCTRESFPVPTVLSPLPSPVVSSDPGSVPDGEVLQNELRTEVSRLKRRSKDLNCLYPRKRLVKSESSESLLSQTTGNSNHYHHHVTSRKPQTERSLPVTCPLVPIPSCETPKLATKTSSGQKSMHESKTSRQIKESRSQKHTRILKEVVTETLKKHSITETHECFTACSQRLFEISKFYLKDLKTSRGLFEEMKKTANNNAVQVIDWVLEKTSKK
The assay is described as follows: co-IP; Fig S9B: 3HA-Treslin/TICRR fragments (260-671) co-transfected with C-terminally GFP-tagged MTBP into 293T; anti-GFP nanobody immunoprecipitation from cell lysates.

The target of assay [2] is GFP-Flag-Treslin/TICRR-ΔM2 (human) (UniProt Q7Z2Z1). The assay is described as follows: co-IP; Fig S13: GFP-Flag-Treslin/TICRR mutants transiently transfected into 293T together with MTBP; native lysates, anti-GFP nanobody IP in the presence of recombinant Cdk2-cyclin A; immunoblots for GFP, TopBP1 and MTBP. (Immunoblotting shows a protein as a band on a membrane.)
For assay [3], the target named is GFP-Flag-Treslin/TICRR-ΔM1 (human) (UniProt Q7Z2Z1). The description is as above.
Assay [4] concerns the target GFP-Flag-Treslin/TICRR-WT (human) (UniProt Q7Z2Z1). The assay is described as above.

Residue numbers refer to the chain shown, from its start. No constants are given. Whether binding was seen depends on the method and setting. In cells and extracts the contact can be indirect. Some entries that bind do so weakly or less than the wild type. For some of these results: Where a sequence is shown, tags or fusion partners need not be part of it.

B1: 3HA-Treslin/TICRR fragment 260–671, β-strand 2m (domain or fragment, UniProt Q7Z2Z1 260-671)
chain: LRSGIKLSSEPHLSPWISMLPTDATLNRLLYNSPEYEASFPRMEGMLFLPVEAGKEIQETWTVTLEPLAMHQRHFQKPVRIFLKGSVAQWSLPTSSTLGTDSWMLGSPEESTATQRLLFQQLVSRLTAEELHLVADVDPGEGRPPSGELRLPSSASAMILTVCRTKEAEFQRHVLQTAVADSPRDTASLFSDVVDSILNQTHDSLADTASAASPVPEWAQQELGHTTPWSPAVVEKWFPFCNISGASSDLMESFGLLQAASANKEESSKTEGELIHCLAELYQRKSREESTIAHQEDSKKKRGVPRTPVRQKMNTMCRSLKMLNVARLNVKAQKLHPDGSPDVAGEKGIQKIPSGRTVDKLEDRGRTLRSSKPKDFKTEEELLSYIRENYQKTVATGEIMLYACARNMISTV
As to B1, in assay [1], the binding entry was “binds”.

B2: 3HA-Treslin/TICRR fragment 260–671, β-strand 1m (domain or fragment, UniProt Q7Z2Z1 260-671)
chain: LRSGIKLSSEPHLSPWISMLPTDATLNRLLYNSPEYEASFPRMEGMLFLPVEAGKEIQETWTVTLEPLAMHQRHFQKPVRIFLKGSVAQWSLPTSSTLGTDSWMLGSPEESTATQRLLFQQLVSRLTAEELSGELRLDPGEGRPPITGVISPLSASAMILTVCRTKEAEFQRHVLQTAVADSPRDTASLFSDVVDSILNQTHDSLADTASAASPVPEWAQQELGHTTPWSPAVVEKWFPFCNISGASSDLMESFGLLQAASANKEESSKTEGELIHCLAELYQRKSREESTIAHQEDSKKKRGVPRTPVRQKMNTMCRSLKMLNVARLNVKAQKLHPDGSPDVAGEKGIQKIPSGRTVDKLEDRGRTLRSSKPKDFKTEEELLSYIRENYQKTVATGEIMLYACARNMISTV
B2: the binding result in assay [1] is reported as “binds”.

B3: 3HA-Treslin/TICRR fragment, amino acids 260–671 (domain or fragment, UniProt Q7Z2Z1 260-671)
chain: B2 chain with S132H, G133L, E134V, L135A, R136D, L137V
For B3, the binding result in assay [1] is “binds”.

B4: 3HA-Treslin/TICRR fragment 260–671, β-strand 3m (domain or fragment, UniProt Q7Z2Z1 260-671)
chain: LRSGIKLSSEPHLSPWISMLPTDATLNRLLYNSPEYEASFPRMEGMLFLPVEAGKEIQETWTVTLEPLAMHQRHFQKPVRIFLKGSVAQWSLPTSSTLGTDSWMLGSPEESTATQRLLFQQLVSRLTAEELHLVADVDPGEGRPPITGVISPLSALLCIKVEAFTKEAEFQRHVLQTAVADSPRDTASLFSDVVDSILNQTHDSLADTASAASPVPEWAQQELGHTTPWSPAVVEKWFPFCNISGASSDLMESFGLLQAASANKEESSKTEGELIHCLAELYQRKSREESTIAHQEDSKKKRGVPRTPVRQKMNTMCRSLKMLNVARLNVKAQKLHPDGSPDVAGEKGIQKIPSGRTVDKLEDRGRTLRSSKPKDFKTEEELLSYIRENYQKTVATGEIMLYACARNMISTV
Turning to B4, the binding result in assay [1] is reported as “binds”.

B5: MTBP (co-transfected) (protein, UniProt Q96DY7 1-904)
chain: T1 sequence
As for B5, the results for the binding result in assay [2], in assay [3] and in assay [4] were “no binding”, “binds” and “binds”, respectively.

The values above are taken from PMC8807876.
